The record followed here is publication PMC10711551 (Nucleic Acids Research, 2023).

In general, Kd refers to the constant that tells how readily two partners part at equilibrium. High values mean weaker binding, low ones tighter binding.

The target in this experiment is human DNMT3B PWWP domain (residues 206–355), wild type (human, UniProt Q9UBC3 206-355). Kind of experiment: ITC.

B1: human DNMT3B ADD domain ([…]), wild type (domain or fragment)
chain: not shown
B1 gave a Kd of 49 µM.
